US20230365662A1
Residue numbers refer to the chain shown, from its start. Names and notes keep the numbering of the source.

B1: H8 K222A (antibody)
heavy: QVQLQESGPGLVKPSETLSLTCTVSGFSLSIYSVHWIRQPPGKGLEWIGMIWGGGSSDYNSALKSRLTISKDTSKNQVSLKLSSVTAADTAVYYCARNGNFYAMDYWGQGTLVTVSS[human IgG1 constant region with K222A (EU numbers) not shown]
light: EIVLTQSPGTLSLSPGERATLSCTASSSVSSSFLHWYQQKPGQAPQLWIYSTSNLASGIPARFSGSGSGTDYTLTISRLEPEDFATYYCHQYHHSPYIYTFGGGTKLEIKRTVAAPSVFIFPPSDEQLKSGTASVVCLLNNFYPREAKVQWKVDNALQSGNSQESVTEQDSKDSTYSLSSTLTLSKADYEKHKVYACEVTHQGLSSPVTKSFNRGEC
B2: H14 K222A (antibody)
heavy: B1 heavy with I48L, V92M
light: B1 light with A61D, T86V
B3: H5 K222A (antibody)
heavy: B1 heavy
light: B1 light with Q46R, W48L, A61D, Y72F, T86V
B4: H7 K222A (antibody)
heavy: B1 heavy
light: B1 light with A61D

What follows are binders tested against HRgpA-6H (Porphyromonas gingivalis) (assay: SPR; ligand HRgpA-6H, analyte antibody as the table prints).
Binder B1 has a Kd of 0.57 nM, a koff of 3.3e-05 s⁻¹ and a kon of 58000 M⁻¹ s⁻¹.
Work on B2 yielded a Kd of 1.3 nM, a koff of 6.53e-05 s⁻¹ and a kon of 50100 M⁻¹ s⁻¹.
Binder B3 has a Kd of 0.068 nM, a koff of 3.42e-06 s⁻¹ and a kon of 50200 M⁻¹ s⁻¹.
With B4 the Kd was 0.795 nM, the koff was 4.36e-05 s⁻¹ and the kon was 54800 M⁻¹ s⁻¹.
